Measured values: US12642862B2, “Anti-CD79B antibody-drug conjugate, and preparation method therefor and pharmaceutical use thereof” (TUOJIE BIOTECH (SHANGHAI) CO., LTD., priority 2020, dated 2026)

Tests used:
Mouse CD79B-His protein = biological target: T1, Mouse CD79B-His protein (Mus musculus, UniProt P15530); experiment: Interspecific cross-reactivity, mouse CD79B; assay type: binding
T1 construct: His
T1 sequence (P15530 26-228): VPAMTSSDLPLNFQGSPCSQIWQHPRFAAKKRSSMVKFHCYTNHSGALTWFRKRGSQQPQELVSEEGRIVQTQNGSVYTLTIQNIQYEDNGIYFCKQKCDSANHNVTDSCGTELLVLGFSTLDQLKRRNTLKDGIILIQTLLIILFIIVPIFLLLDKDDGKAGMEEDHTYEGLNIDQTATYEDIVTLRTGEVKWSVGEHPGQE
Text: (§1) The above antibodies were cloned, expressed and purified, and the humanized antibodies hAb015-10 and hAb017-10 with the best activity were selected by ELISA, FACS, SPR and other assays.

WSU-DLCL2 cell = experiment: Cell killing assay of humanized antibodies, WSU-DLCL2; assay type: cell-based, human
Text: as §1

Raji cell = experiment: Cell killing assay of humanized antibodies, Raji; assay type: cell-based
Text: as §1

DoHH2 cell [1] = experiment: Cell killing assay of humanized antibodies, DoHH2; assay type: cell-based, human
Text: as §1

Monkey CD79B-His protein = experiment: Interspecific cross-reactivity, monkey CD79B; assay type: binding
Text: as §1

[2] = system: DOHH-2 cells highly expressing human CD79B protein; experiment: Endocytosis of anti-CD79B antibodies in DOHH-2 cells; assay type: cell-based
Method: In order to determine whether the CD79B antibodies of the present disclosure can be endocytosed into cells with human CD79B after binding to human CD79B, a cell endocytosis experiment was performed with DOHH-2 cells (DSMZ, ACC 47) highly expressing human CD79B protein to assess the endocytosis ability of the antibodies.
The cells were collected by low temperature centrifugation at 4° C. for 5 min at 1000 rpm during the experiment. The cells were resuspended in 10-15 mL of FACS buffer pre-cooled on ice. The FACS buffer was composed of phosphate buffered saline (PBS), pH 7.4, with 2% fetal bovine serum (FBS). Throughout the experiment, FACS buffer was pre-cooled on ice. The cells were counted and centrifuged, and added to a 96-well plate at 300,000 cells/well. After centrifugation, the supernatant was discarded, and 12.5 μg/mL Fc blocking solution (BD, Cat No.: 564220) was added at 100 μL/well. Blocking was performed at room temperature for 10 min. Then, 20 μg/mL test CD79B antibody was added to the corresponding wells, and the plate was incubated at 4° C. for 1 h away from the light. The plate was washed twice with a pre-cooled PBS buffer to remove unbound antibodies. A complete cell culture medium (RPMI 1640 medium with 10% fetal bovine serum) was added, and the plate was incubated at 37° C. with 5% CO2 for 0 h, 1 h, 2 h and 4 h. After centrifugation, the supernatant was discarded, 2% PFA buffer solution was added at 100 μL/well to resuspend the cells, and the plate was left to stand for 10 min. Then, the plate was washed 3 times with an FACS buffer, and 100 μL of secondary antibody solution (fluorescent labeled goat anti-human secondary antibody: diluted in a 1:250 ratio, 2 μg/mL, Biolegend, Cat #409304) was added. The plate was incubated at 4° C. for half an hour away from the light. A pre-cooled PBS buffer was added, and the supernatant was discarded after centrifugation at 4° C., which were repeated three times. The cells were resuspended in an FACS buffer at 200 μL/well and detected using a flow cytometer (BD FACS Calibur).

DoHH2 cell [3] = experiment: FACS assay of humanized anti-CD79B antibodies; assay type: binding, human
Text: as §1

Human CD79B-His protein [4] = biological target: T2, Human CD79B-His protein (Homo sapiens, UniProt P40259); experiment: Interspecific cross-reactivity, human CD79B; assay type: binding
T2 construct: His tag (HHHHHH) (C); made in house; host or cells: 293F cells
T2 sequence (P40259 29-159): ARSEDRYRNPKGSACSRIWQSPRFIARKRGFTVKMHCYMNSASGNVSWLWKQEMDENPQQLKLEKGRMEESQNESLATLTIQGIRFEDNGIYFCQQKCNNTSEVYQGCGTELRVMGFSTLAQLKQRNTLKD
Text: as §1

[5] = Thermal stability test (DSC, DLS); assay type: physicochemical
Text: as §1

Human CD79B-His protein [6] = biological target: T2, Human CD79B-His protein; experiment: ELISA assay of humanized anti-CD79B antibodies; assay type: binding
Text: as §1

Human CD79B-His protein [7] = biological target: T2, Human CD79B-His protein; experiment: SPR assay of anti-CD79B antibodies; assay type: binding
Method: 7) Assay on anti-human CD79B mouse monoclonal antibodies by SPR The affinity of the anti-human CD79B antibody for its antigen human CD79B-His was assayed by surface plasmon resonance (SPR) technology. The antigen human CD79B-His protein was immobilized to a CM5 chip. The coupling level was set at 100 RU. The running buffer was HBS-EP+ (10 mM HEPES, 150 mM NaCl, 3 mM EDTA, 0.05% surfactant P20). The diluted antibodies were allowed to flow through the experimental and control channels at a flow rate of 30 μL/min for 3 min and dissociated for 5 min. Regeneration buffer (10 mM Glycine, pH 1.5) was then run at a flow rate of 30 μL/min for 30 s. Data were analyzed using Biacore 8K software.
as §1

B1: hAb017-10: humanized anti-CD79B antibody from mAb017; heavy chain SEQ ID NO: 30, light chain SEQ ID NO: 31 (antibody)
heavy: EVQLVQSGAEVKKPGASVKVSCKASGYTFTTYGINWVKQAPGQGLEWIGEIYPRSGNIYYNEKFKGKATLTADKSTSTAYMELRSLRSDDTAVYYCARGSDYDGDFAYWGQGTLVTVSS[letters of human IgG1 constant region not shown]
light: DVVMTQTPLSLPVTPGEPASISCRSSQSIVHHDGNTYLEWYLQKPGQSPQLLIYKVSNRFSGVPDRFSGSGSGTDFTLKISRVEAEDVGVYYCFQGSHVPWTFGGGTKVEIKRTVAAPSVFIFPPSDEQLKSGTASVVCLLNNFYPREAKVQWKVDNALQSGNSQESVTEQDSKDSTYSLSSTLTLSKADYEKHKVYACEVTHQGLSSPVTKSFNRGEC
modifications: Heavy chain of hAb017-10 humanized antibody; Light chain of hAb017-10 humanized antibody
With B1 as the molecule, how does the Interspecific cross-reactivity (Mouse CD79B-His protein) read?
The Interspecific cross-reactivity was “No”.

What about the IC50 (WSU-DLCL2 cell) of the same molecule?
The IC50 was 0.049 nM.

What about the IC50 (Raji cell) of the same molecule?
Its IC50 is over 100 nM.

And the IC50 (DoHH2 cell [1])?
Its IC50 is 0.002 nM.

What about the Interspecific cross-reactivity (Monkey CD79B-His protein) of the same molecule?
Its Interspecific cross-reactivity is “No”.

And the “endocytosis by DOHH-2 cells at 4° C.” value ([2]; 20 μg/mL antibody, incubation at 4° C.)?
Its value is “cannot be endocytosed by DOHH-2 cells”.

What about the “endocytosis by DOHH-2 cells at 37° C. after 1 h” value ([2]; 20 μg/mL antibody, incubation at 37° C., 1 h) of the same molecule?
The value was “most of the antibodies are already endocytosed by DOHH-2 cells”.

What about the “endocytosis, overall judgement” value ([2]; DOHH-2 cells) of the same molecule?
The value was “good endocytosis”.

And the “time at which antibody endocytosis reaches a maximum” value ([2]; incubation at 37° C.)?
Its value is 4 h.

And the EC50 (DoHH2 cell [3])?
Its EC50 is 0.55 nM.

And the Interspecific cross-reactivity (Human CD79B-His protein [4])?
Its Interspecific cross-reactivity is “Yes”.

What about the “Thermal stability test DLS (Tagg, ° C.)” value ([5]; DLS) of the same molecule?
Its value is 67 °C.

And the “Thermal stability test DSC (Tm, ° C.)” value ([5]; DSC)?
Its value is 65 °C.

What about the EC50 (Human CD79B-His protein [6]) of the same molecule?
The EC50 was 0.06 nM.

What about the Kd (Human CD79B-His protein [7]; Human CD79B-His protein) of the same molecule?
The Kd was 4.3 nM.

What about the “affinity and related functions compared with the mouse monoclonal antibodies” value (Human CD79B-His protein [7]; by ELISA, FACS, SPR and other assays) of the same molecule?
The value was “retained similar affinity and related functions to the mouse monoclonal antibodies”.
